{"source": "patent US20090291999A1", "about": "“Agent Exhibiting a Neurotropic, Neuromodulator, Cerebrovascular and Anti-Stroke Activity” (AKHAPKINA, Valentina Ivanovna, priority 2006, published 2009)", "key": {"[1]": {"tested_on": "rats with distal occlusion of medial cerebral artery (OMCA)", "assay": "Ischemic stroke (OMCA) model: brain damage area by TTC staining", "type": "in vivo, rat", "details": "for Volume of damage area (DA) / Volume of ipsilateral hemisphere (IH) / DA/IH relation: 72 hours after OMCA"}, "[2]": {"tested_on": "rats with hemorrhagic stroke (intracerebral post-traumatic hematoma)", "assay": "Hemorrhagic stroke model: conditioned reflex of passive avoidance (CRPA)", "details": "100 mg/Kg for 7 days; 7th and 14th days after the HS operation"}, "[3]": {"tested_on": "rats with distal occlusion of medial cerebral artery (OMCA)", "assay": "Ischemic stroke (OMCA) model: course injections for 10 days, ipsilateral hemisphere volume", "type": "in vivo, rat", "details": "for Volume of ipsilateral hemisphere: OMCA + 300 mg/Kg intraperitoneally for 10 days from 5 minutes after operation"}, "[4]": {"details": "Group 6: 100 mg/Kg 60 minutes prior to OMCA"}, "[5]": {"details": "Group 8: 300 mg/Kg 60 minutes prior to OMCA"}, "[6]": {"details": "Group 9: 100 mg/Kg in 5 minutes after OMCA"}, "[7]": {"details": "Group 10: 200 mg/Kg in 5 minutes after OMCA"}, "[8]": {"details": "Group 11: 300 mg/Kg in 5 minutes after OMCA"}}, "note": "Values joined by “and” are separate entries in the source; they are usually repeats but may differ in a detail not shown here. Equal values may be shown once."}
{"smiles": "NC(=O)CN1CC(c2ccccc2)CC1=O", "note": "(centres unmarked) [Phenotropil, N-carbomoyl-methyl-4-phenyl-2-pyrrolidon]", "values": [{"measurement": "Reduction in the focal damage area compared to the control group", "setting": "[1]; 100 mg/Kg 60 minutes prior to the operation", "result": 36, "unit": "%"}, {"measurement": "Reduction in the brain damage area", "setting": "[1]; 100 mg/Kg in 5 minutes after the operation", "result": 4, "unit": "%"}, {"measurement": "Reduction in the focal damage area compared to the control group", "setting": "[1]; 200 mg/Kg 60 minutes prior to the operation", "result": 43, "unit": "%"}, {"measurement": "Reduction in the brain damage area", "setting": "[1]; 200 mg/Kg in 5 minutes after the operation", "result": 6, "unit": "%"}, {"measurement": "Reduction in the focal damage area compared to the control group", "setting": "[1]; 300 mg/Kg 60 minutes prior to the operation", "result": 48, "unit": "%"}, {"measurement": "Reduction in the brain damage area", "setting": "[1]; 300 mg/Kg in 5 minutes after the operation", "result": 17, "unit": "%"}, {"measurement": "Volume of damage area (DA)", "setting": "[1]; [4]", "result": "58.2 ± 5.71", "unit": "mm^3"}, {"measurement": "Volume of ipsilateral hemisphere (IH)", "setting": "[1]; [4]", "result": "786.6 ± 4.74", "unit": "mm^3"}, {"measurement": "DA/IH relation", "setting": "[1]; Group 6: 100 mg/Kg 60 minutes prior to OMCA, 100 mg/kg", "result": "7.4±0.72% and 7.39 ± 0.72 %"}, {"measurement": "Volume of damage area (DA)", "setting": "[1]; Group 7: 200 mg/Kg 60 minutes prior to OMCA", "result": "49.2 ± 6.13", "unit": "mm^3"}, {"measurement": "Volume of damage area (DA)", "setting": "[1]; [5]", "result": "48.1 ± 5.99", "unit": "mm^3"}, {"measurement": "Volume of ipsilateral hemisphere (IH)", "setting": "[1]; [5]", "result": "797 ± 4.33", "unit": "mm^3"}, {"measurement": "DA/IH relation", "setting": "[1]; Group 8: 300 mg/Kg 60 minutes prior to OMCA, 300 mg/kg", "result": "6.03 ± 0.75", "unit": "%"}, {"measurement": "Volume of damage area (DA)", "setting": "[1]; [6]", "result": "86.5 ± 6.53", "unit": "mm^3"}, {"measurement": "Volume of ipsilateral hemisphere (IH)", "setting": "[1]; [6]", "result": "787.9 ± 5.24", "unit": "mm^3"}, {"measurement": "DA/IH relation", "setting": "[1]; Group 9: 100 mg/Kg in 5 minutes after OMCA, 100 mg/kg", "result": "11 ± 0.87", "unit": "%"}, {"measurement": "Volume of damage area (DA)", "setting": "[1]; [7]", "result": "85.9 ± 7.78", "unit": "mm^3"}, {"measurement": "Volume of ipsilateral hemisphere (IH)", "setting": "[1]; [7]", "result": "794.8 ± 4.27", "unit": "mm^3"}, {"measurement": "DA/IH relation", "setting": "[1]; Group 10: 200 mg/Kg in 5 minutes after OMCA, 200 mg/kg", "result": "10.79 ± 0.97% and 10.8 ± 0.97%"}, {"measurement": "Volume of damage area (DA)", "setting": "[1]; [8]", "result": "76.2 ± 7.59", "unit": "mm^3"}, {"measurement": "Volume of ipsilateral hemisphere (IH)", "setting": "[1]; [8]", "result": "801.2 ± 3.63", "unit": "mm^3"}, {"measurement": "DA/IH relation", "setting": "[1]; Group 11: 300 mg/Kg in 5 minutes after OMCA, 300 mg/kg", "result": "9.5 ± 0.94", "unit": "%"}, {"measurement": "Reduction of brain damage area at the average", "setting": "[1]; injected 60 minutes before the operation and once a day for three days, average over doses", "result": 42, "unit": "%"}, {"measurement": "Increase of latent time of entering a dark dangerous chamber compared to HS-rats", "setting": "[2]", "result": "~3", "unit": "times"}, {"measurement": "Rats which remembered the negative situation", "setting": "[2]", "result": "up to 40%"}, {"measurement": "Changes in the hemisphere volume", "setting": "[3]; 300 mg/Kg intraperitoneally for 10 days, 3rd vs 10th day", "result": "No reliable changes in the hemisphere volume"}, {"measurement": "Shrinkage of the hemisphere (contraction to the damage area)", "setting": "[3]; 300 mg/Kg intraperitoneally for 10 days, on the 10th day", "result": "no shrinkage of the hemisphere was identified"}, {"measurement": "Volume of ipsilateral hemisphere", "setting": "[3]; on the 3rd day", "result": "772.4 ± 4.5", "unit": "mm^3"}, {"measurement": "Volume of ipsilateral hemisphere", "setting": "[3]; on the 10th day", "result": "773.17 ± 3.83", "unit": "mm^3"}]}
